# Data as given in article PMC4336329 (PLoS ONE, 2015).
# Out of some 310,000 compounds screened, about 14,000 (4.5%) showed an effect of 50% or more. The effect is printed as a negative number. The list shows a part of the results.
# Target: human ether-à-go-go-related gene (hERG) potassium channel (human, UniProt Q12809)
# Assay: primary screen, population patch clamp on CHO cells stably expressing hERG
# 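Note: peak tail current of the secondary pulse compared with the same well before compound.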
# human ether-à-go-go-related gene (hERG) potassium channel, sequence (Q12809 whole entry, looked up): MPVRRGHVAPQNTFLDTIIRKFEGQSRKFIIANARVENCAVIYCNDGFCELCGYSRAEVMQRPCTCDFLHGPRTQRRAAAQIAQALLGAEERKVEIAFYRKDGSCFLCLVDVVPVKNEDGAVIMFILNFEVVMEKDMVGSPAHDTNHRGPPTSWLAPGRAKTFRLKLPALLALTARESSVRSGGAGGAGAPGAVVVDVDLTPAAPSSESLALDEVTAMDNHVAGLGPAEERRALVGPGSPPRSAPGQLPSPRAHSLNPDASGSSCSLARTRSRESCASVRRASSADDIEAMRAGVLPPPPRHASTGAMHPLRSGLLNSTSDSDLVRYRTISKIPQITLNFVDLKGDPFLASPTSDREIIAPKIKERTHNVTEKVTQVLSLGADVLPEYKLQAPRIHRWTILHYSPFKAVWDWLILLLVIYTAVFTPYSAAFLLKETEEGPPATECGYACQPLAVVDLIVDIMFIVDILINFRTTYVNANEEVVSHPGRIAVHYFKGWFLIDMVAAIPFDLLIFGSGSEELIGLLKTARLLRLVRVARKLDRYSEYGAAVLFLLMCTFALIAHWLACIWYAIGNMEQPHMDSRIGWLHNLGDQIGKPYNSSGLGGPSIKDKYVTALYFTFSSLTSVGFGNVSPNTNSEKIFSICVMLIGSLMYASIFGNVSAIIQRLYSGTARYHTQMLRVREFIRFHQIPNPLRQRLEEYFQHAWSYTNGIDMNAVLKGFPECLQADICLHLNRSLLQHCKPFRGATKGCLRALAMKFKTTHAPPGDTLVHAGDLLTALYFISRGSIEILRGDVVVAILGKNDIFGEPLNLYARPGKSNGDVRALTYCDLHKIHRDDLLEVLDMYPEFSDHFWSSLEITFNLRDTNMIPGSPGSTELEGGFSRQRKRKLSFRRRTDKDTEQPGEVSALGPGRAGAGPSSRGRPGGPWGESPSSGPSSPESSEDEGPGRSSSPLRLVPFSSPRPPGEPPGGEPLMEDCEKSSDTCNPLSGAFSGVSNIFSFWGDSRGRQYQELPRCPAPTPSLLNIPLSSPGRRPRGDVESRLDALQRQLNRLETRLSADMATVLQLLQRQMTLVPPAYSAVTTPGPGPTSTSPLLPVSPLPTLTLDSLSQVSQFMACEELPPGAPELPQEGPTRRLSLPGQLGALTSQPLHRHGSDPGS
row,SMILES,"hERG current change (%, negative = inhibition) at 10uM [%]"
1,CN(C)c1ccc(-c2noc(C3CCN(S(=O)(=O)c4ccc(C(=O)O)cc4)CC3)n2)cc1,-1.13
2,CCN(CC)S(=O)(=O)c1cccc(C(=O)N[C@H](C(=O)OCC(N)=O)C(C)C)c1,4.04
3,CCOc1ccccc1NC(=O)Cc1c(F)cccc1Cl,1.89
4,CCC(C(=O)NCCCN1CCCC1=O)n1c2ccccc2c2nc(=O)cc(C)n21 (stereo not drawn),12.2
5,O=C(CCc1nnc2ccc(N3CCC4(CC3)OCCO4)nn12)Nc1ccc(F)cc1,-40.2
6,Cn1c(C(=O)O)c(CC(=O)Nc2ccc3c(c2)OCCO3)c2ccccc21,28
7,O=C(NCCc1ccccc1)C1CCN(Cc2ccccc2F)CC1.O=C(O)C(=O)O,1.53
8,c1ccc(C2=Nc3c(ccc4ccccc34)C(c3ccncc3)=NN2)cc1,4.64
9,COC(=O)c1cccc(CSc2nc3ccccc3[nH]2)c1,-22.5
10,Cc1cc(NC(=O)c2nn(C)c(C)c2[N+](=O)[O-])no1,10.5
11,Cc1ccc(-c2csc3nnc(SCC(=O)Nc4nsc(-c5ccccc5)n4)n23)cc1,-62.9
12,CCc1nnc2n1N=C(c1ccc(Br)cc1)CS2,-3.75
13,Cc1ccc(NC(=O)CCC(=O)OCC(=O)c2ccc(-c3ccccc3)cc2)cc1,-3.97
14,Cc1ccc(C(=O)CCC2CCCC2=O)cc1 (stereo not drawn),-1.6
15,Cc1ccc(C(=O)Nc2ccc(Br)c(C(F)(F)F)c2)cc1,4.38
16,CC(C)C(=O)Nc1cc2c3c(c1)CCN3C(=O)CC2,12.6
17,COC(=O)C1=NNC2(c3ccc(Cl)cc3)C(=O)N(c3ccccc3)C(=O)C12 (stereo not drawn),-3.13
18,COc1ccc(-c2csc(NC(=O)C3CSC4(C)CCC(=O)N34)n2)cc1 (stereo not drawn),17.7
19,CCN(C(=O)CN1CCN(c2cccc(Cl)c2)CC1)c1c(N)n(Cc2ccccc2)c(=O)[nH]c1=O,1.16

row,SMILES,"hERG current change (%, negative = inhibition) at 10uM [%]"
1,COc1cccc(/C=N/NC(=O)c2ccc3nc[nH]c3c2)c1,11.8
2,CCOC(=O)c1c(-c2ccc(C)o2)csc1NC(=O)CN1CCC(C(N)=O)CC1,-49.6
3,CC1Cc2cc(C3(O)C(=O)c4ccccc4C3=O)ccc2N1 (stereo not drawn),0.579
4,CCOC(=O)c1cnc(SCc2ccc(C(C)(C)C)cc2)nc1N,3.26
5,CCOC(=O)C1CCCN(C(=O)CC(C)c2ccccc2)C1 (stereo not drawn),-1.45
6,COC(=O)C1=C(N)c2ccccc2C1(C#N)c1ccccc1 (stereo not drawn),-10.2
7,O=C(Cn1nc(C(F)(F)F)c2c1CCC2)Nc1ccccc1C(F)(F)F,9.54
8,COc1ccc(-c2c(C)c3cc(O)ccc3oc2=O)cc1OC,5.27
9,Fc1ccc(CNC(=S)Nc2cccc(Cl)c2)cc1,-1.57
10,CCOC(=O)c1cnc2ccc(OCC)cc2c1N1CCN(c2ccccc2)CC1,13.9
11,O=C(c1ccc(S(=O)(=O)Nc2ccc(F)cc2)cc1)N1CCN(c2ccccn2)CC1,-27.4
12,CC(C)(C)c1ccc(C(=O)NCc2nnc(SCC(=O)NC3CCCCC3)o2)cc1,4.98
13,Cc1cc(N2C(=O)C3C4CC(c5ccccc5)C(C4)C3C2=O)no1 (stereo not drawn),5.27
14,O=c1[nH]c(N2CCN(Cc3ccccc3)CC2)nc2c1CCC2,18.9
15,Nc1nnc(SCc2cc3c(cc2Cl)OCO3)s1,-14.1
16,CCOC(=O)Cn1nc(C)c(NC(=O)CCc2ccc(OC)cc2)c1C,24.4
17,Cc1ccc(NC(=S)NN(C)c2nc(C)cnc2C)cc1,6.26
18,CC(NC(=O)Cc1cccs1)c1ccncc1 (stereo not drawn),3.83
19,CC(C)C[C@H](NC(=O)OC(C)(C)C)C(=O)N[C@@H](CO)[C@H](O)[C@@H]1C[C@@H]1C(=O)NC1CCCCC1,4.59

row,SMILES,"hERG current change (%, negative = inhibition) at 10uM [%]"
1,O=C(Cn1ccc2ccccc2c1=O)NCCC(=O)NC1CCN(Cc2ccccc2)CC1,-3.36
2,Cn1c(N2CCN(C(=O)NCc3ccccc3)CC2)nc2ccccc21,-60
3,Cc1ccc(S(=O)(=O)N(C)C)cc1NC(=O)CCCNC(=O)c1ccc(Cl)cc1,-13.8
4,Cc1ccc(-c2ccc(C)c(N)c2C)c(C)c1N,11.4
5,CCN(c1ccc(OC)cc1)c1ncnc2nc[nH]c12,-8.04
6,CN(C(=O)c1ccc(OC2CCN(S(=O)(=O)N(C)C)CC2)cc1)C1CCCCC1,28.5
7,COc1ccc2oc(C(=O)OCC(=O)NC3CCCC3)c(C)c2c1,0.285
8,CCN(CC1CCCO1)C(=O)c1cc(COc2ccc(F)cc2F)on1 (stereo not drawn),-14.8
9,Cn1c(O)c(C(c2ccccn2)c2c(O)n(C)c(=S)n(C)c2=O)c(=O)n(C)c1=S,18.9
10,Cc1c(Cl)cccc1NC(=S)N1CCCN(Cc2ccccc2F)C1,3
11,O=C(NNC(=O)c1ccc2nonc2c1)Nc1ccc(Cl)cc1,9.22
12,O=C(N/N=C/c1ccc(F)cc1)c1ccccc1,24.8
13,CN(C)CC#CCC(O)(c1ccccc1)c1ccccc1,-2.15
14,O=C(c1cccc(S(=O)(=O)N2CCCC2)c1)N1CCCC(C(F)(F)F)C1 (stereo not drawn),2.39
15,COc1cccc(CNC(=O)C2CCCN(S(=O)(=O)c3cccc4nonc34)C2)c1 (stereo not drawn),-0.218
16,O=C(COc1ccc(Cl)cc1)Nc1cccc(-c2ccc3nncn3n2)c1,-51.9
17,O=C(Cc1cccs1)Nc1ccc(-c2nnc(-c3ccccc3)o2)cc1,0.14
18,CCCCOc1ncnc2c1[nH]c1ccccc12,20.1
19,O=C(O)CCC(=O)NNC(=O)c1ccc([N+](=O)[O-])cc1,-9.06
